Assay results: PubChem BioAssay AID623901 (Broad Institute, 2012)
“And” between values parts separate entries of the source, which are not always exact repeats. Equal values may be shown once. Out of some 340,000 compounds screened, about 470 (0.14%) were called active. Inconclusive results, whose numbers are uncertain, are shown with a selection of clear calls.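 The calls were made as follows: active = mean activation of 30% or more, with every replicate also reaching 30%; inconclusive = mean activation of 30% or more but some replicate falls short; inactive = the rest.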

Assay: small molecules raising miR-122 sensor signal – cell-based, Huh7 psiCHECK-miR122, Renilla luciferase, single point, primary screen (AID 623901);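 also: 0% = median of neutral control wells and 100% = median of positive control wells; higher luciferase signal means stronger suppression of miR-122 activity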
Conditions: 48 h, at 12.5 µM, stronger effect = higher value

Structure (SMILES) | activation
CN(C)CCCNC(=O)C[C@H]1CC[C@H]2[C@@H](COc3ccc(NC(=O)c4ccccc4F)cc3C(=O)N2C)O1 | inconclusive: 37.8%
CO[C@@H]1CN(C)C(=O)c2ccc(NC(=O)Nc3ccc(C(F)(F)F)cc3)cc2OC[C@H](C)NC[C@H]1C | inconclusive: 31.1%
CCN(C[C@@H]1N[C@H](CO)[C@H]1c1ccc(-c2ccc(F)cc2)cc1)C(=O)COC | inconclusive: 41.7%
Cc1ccc(C2CC(C(F)(F)F)n3nc(C(=O)NCc4ccco4)cc3N2)cc1 (centres undefined) | active: 40.9%
CO[C@@H]1CN(C)C(=O)c2cc(NC(=O)c3cccc(Oc4ccccc4)c3)ccc2OC[C@H](C)NC[C@@H]1C | inconclusive: 31.1%
C=CCNC(=S)NNC(=O)Cn1c(-c2ccccc2)cc(=O)n2ncnc12 | active: 34%
CC(=O)NC(c1ccc(C)cc1)c1cc(Cl)c2cccnc2c1O (centres undefined) | active: 30.8%
CO[C@@H]1CN(C)C(=O)c2cc(NC(=O)c3ccc(F)cc3)ccc2OC[C@@H](C)N(C)C[C@@H]1C | inactive: -0.879%
N#Cc1c(N)nc2c(c1-c1cccs1)CCCC2 | inconclusive: 30.2%
CNC(=O)C[C@H]1CC[C@@H]2[C@H](COc3ccc(NC(=O)NC(C)C)cc3C(=O)N2C)O1 | inconclusive: 43.3%
N=c1c2c(-c3ccccc3)c(-c3ccccc3)n(Cc3ccccc3)c2ncn1CCO | active: 39.6%
O=C(c1ccccc1)C(O)(Cc1ccccc1)c1ccccc1 (centres undefined) | inactive: -168%
CCC(=O)N1[C@H](CO)[C@H](c2ccccc2)[C@H]1CN(C(C)C)S(C)(=O)=O | inconclusive: 133%
COc1ccccc1Nc1ccc([N+](=O)[O-])cc1N | inconclusive: 31%
S=C(NCC1CCCCC1)Nc1ccc(Oc2ccccc2)cc1 | inactive: -117%
Cc1cc(C)n2nc(/C(C#N)=C/c3ccccc3)c(C#N)c2n1 | inconclusive: 60.3%
C#CCN(C[C@@H]1[C@@H](OC(=O)NCC2CCCCC2)[C@@H](OC(=O)NCC2CCCCC2)Cn2c(=O)ccc(=O)n21)S(=O)(=O)c1ccc(C)cc1 | inconclusive: 30.6%
CC(C)NC(=O)N(C)C[C@H]1Oc2cc(C#C[C@H](C)O)ccc2S(=O)(=O)N([C@@H](C)CO)C[C@H]1C | inconclusive: 30.4%
COc1ccc(NC(=O)Cn2nnc(C(=O)NCc3ccccc3OC)c2N)cc1Cl | inconclusive: 30.2%
COc1ccc2c(c1)C(C)=CC(C)(C)N2C(=O)CNCc1ccc2c(c1)OCO2 | inconclusive: 36.2%
C[C@H](CO)N1C[C@H](C)[C@@H](CN(C)Cc2ccc(C(=O)O)cc2)Oc2ncc(-c3ccc(C(=O)N(C)C)cc3)cc2C1=O | inactive: -8.11% and inactive: 3.97%
C[C@@H]1CN([C@@H](C)CO)C(=O)c2cc(C#CC3CC3)cnc2O[C@@H]1CN(C)C | inactive: -2.13%

Structure (SMILES) | activation
COc1ccc(-c2ccc3c(c2)O[C@H](CN(C)C(=O)c2ccccc2F)[C@H](C)CN([C@@H](C)CO)S3(=O)=O)cc1 | inactive: 12.9%
C[C@@H]1CN([C@@H](C)CO)C(=O)c2cc(-c3ccc(F)cc3)cnc2O[C@@H]1CN(C)C(=O)c1cccnc1 | inactive: 3.29%
C/C=C/c1ccc2c(c1)O[C@@H](CN(C)CC1CCCC1)[C@H](C)CN([C@@H](C)CO)S2(=O)=O | inconclusive: 31%
O=C(CSc1nc2ccccc2s1)N1CCOCC1 | inconclusive: 32.3%
C[C@@H]1CN([C@@H](C)CO)S(=O)(=O)c2ccc(/C=C/c3ccccc3)cc2O[C@@H]1CN(C)C(=O)NC1CCCCC1 | active: 40.9%
O=c1c2cc(N3CCOCC3)ccc2[nH]c(=S)n1CCCN1CCCC1 | inconclusive: 30.5%
CCCNC(=O)Nc1ccc2c(c1)C(=O)N(C)[C@@H]1CC[C@@H](CC(=O)NCC3CCCCC3)O[C@@H]1CO2 | inconclusive: 33.3%
CCOc1cc(C)c(S(=O)(=O)Nc2ccc(Cl)cn2)cc1C | inactive: -124%
CCCNC(=O)Nc1ccc2c(c1)OC[C@@H](C)NC[C@H](C)[C@@H](OC)CN(C)C2=O | inactive: -2.18%
CN1C(=O)c2cc(NC(=O)Nc3cccc(Cl)c3)ccc2OC[C@H]2O[C@@H](CC(=O)NCCc3ccncc3)CC[C@H]21 | inconclusive: 32.5%
COc1cccc(-c2cnc3c(c2)C(=O)N([C@H](C)CO)C[C@@H](C)[C@H](CN(C)Cc2ccccc2)O3)c1 | inactive: -6.82%
CN1C(=O)c2cc(NC(=O)Nc3ccc(Cl)cc3)ccc2OC[C@H]2O[C@H](CC(=O)NCCN3CCCCC3)CC[C@H]21 | inconclusive: 38.3%
O=c1[nH]n2c(=O)c3c([nH]c2c1N=Nc1ccccc1)CCC3 | inconclusive: 31.2%
COCC(=O)N(C)C[C@@H]1[C@@H](c2ccccc2)[C@H](CO)N1C(=O)Cc1ccncc1 | inconclusive: 30.1%
O=S(=O)(O)c1cc(O)c2c(O)c(N=Nc3cc(Cl)ccc3O)c(S(=O)(=O)O)cc2c1 | inconclusive: 31.6%
CC(=O)N(C)C[C@@H]1Oc2cc(C#CC3(O)CCCC3)ccc2S(=O)(=O)N([C@@H](C)CO)C[C@H]1C | inactive: 2.76%
C[C@H](CO)N1C[C@H](C)[C@H](CN(C)C(=O)Nc2ccc3c(c2)OCO3)Oc2ncc(-c3ccc(F)cc3)cc2C1=O | inactive: -24.1%
COc1ccc(NC(=O)/C(Cl)=C(/Cl)S(=O)(=O)Cc2ccccc2)cn1 | active: 32.3%
CN1C(=O)c2cc(NC(=O)Nc3ccccc3F)ccc2OC[C@@H]2O[C@H](CC(=O)O)CC[C@@H]21 | inconclusive: 43.3%
COc1cccc(C#Cc2ccc3c(c2)O[C@@H](CN(C)C(C)=O)[C@@H](C)CN([C@H](C)CO)S3(=O)=O)c1 | inactive: -0.28%
CCCC(O)C#Cc1cnc2c(c1)C(=O)N([C@H](C)CO)C[C@H](C)[C@H](CN(C)C)O2 (some centres undefined) | inactive: 1.95%
COc1ccc(S(=O)(=O)Nc2cccc3c2O[C@H](CN(C)CC2CCCCC2)[C@@H](C)CN([C@H](C)CO)C3=O)cc1 | inconclusive: 32.9%
